Laboratory results: the antibiotic and cytotoxicity screens of Wong et al. (2023)
The other results are listed elsewhere or left out.

What follows are compounds tested on HepG2 (assay: cytotoxicity call (relative viability < 0.9)). Settings: 10 µM.

Compound	cytotoxicity call
C[C@@H]1CN([C@@H](C)CO)C(=O)c2cccc(NC(=O)NC3CCCCC3)c2O[C@@H]1CN(C)Cc1ccc(C(F)(F)F)cc1	inactive
C[C@H]1CCCCO[C@H](CN(C)C)[C@@H](C)CN([C@@H](C)CO)C(=O)c2cc(NC(=O)Nc3cccc4ccccc34)ccc2O1	inactive
O=C(C[C@H]1C[C@@H]2c3cc(NS(=O)(=O)c4ccc(F)cc4)ccc3O[C@@H]2[C@@H](CO)O1)NCc1cccc(F)c1	inactive
O=C(C[C@H]1CC[C@H]2[C@@H](COC[C@@H](O)CN2S(=O)(=O)c2ccccc2)O1)NCc1ccncn1	inactive
CC(C)NC(=O)Nc1ccc2c(c1)CC(=O)N([C@@H](C)CO)C[C@H](C)[C@H](CN(C)Cc1ccc(C(=O)O)cc1)O2	inactive
C[C@H](CO)N1C[C@H](C)[C@@H](CN(C)C(=O)Nc2cccc(F)c2)OCc2ccccc2-c2c(n(C)c3ccccc23)C1=O	inactive
